These are yes or no findings as the source states them, for the method shown. Binding seen in cells or lysates may run through a third protein. Some binding calls cover weakened binding; strength is not graded here. For some assays here: Tags and fused reporters may be left off the sequences shown.
Tests used:
[1] = biological target: E3 ubiquitin‐protein ligase parkin (PRKN), endogenous in PANC‐1 cells (human (endogenous in PANC-1)) (UniProt O60260); test: co-IP; PRKN immunoprecipitated from PANC-1 cells transduced with HACD2, PKM2, PRKN or a vector control; blots for PKM2 and HACD2 (Figure 5B)
[2] = biological target: E3 ubiquitin‐protein ligase parkin (PRKN), endogenous in PANC‐1 cells (human (endogenous in PANC-1)) (UniProt O60260); test: co-IP; PANC-1 cells, NP-40 lysis buffer with 1% PMSF, antibody overnight at 4 °C, magnetic beads 4 h at 4 °C, western blotting (Figure 5A top)
[3] = biological target: E3 ubiquitin‐protein ligase parkin (PRKN), endogenous in PANC‐1 cells (human (endogenous in PANC-1)) (UniProt O60260); test: co-IP; anti-PRKN antibody, PANC-1 cells with rising doses of His-HACD2 (Figure 5C)
[4] = biological target: Flag‐PKM2 expressed in HEK‐293T cells (UniProt P14618); test: co-IP; HEK-293T cells expressing the constructs, NP-40 lysis buffer with 1% PMSF, antibody overnight at 4 °C, magnetic beads, western blotting (Figure 5A middle and bottom, Figure 5H)

Chains of the proteins cited; added tags and fusions are not shown.
UniProt O60260: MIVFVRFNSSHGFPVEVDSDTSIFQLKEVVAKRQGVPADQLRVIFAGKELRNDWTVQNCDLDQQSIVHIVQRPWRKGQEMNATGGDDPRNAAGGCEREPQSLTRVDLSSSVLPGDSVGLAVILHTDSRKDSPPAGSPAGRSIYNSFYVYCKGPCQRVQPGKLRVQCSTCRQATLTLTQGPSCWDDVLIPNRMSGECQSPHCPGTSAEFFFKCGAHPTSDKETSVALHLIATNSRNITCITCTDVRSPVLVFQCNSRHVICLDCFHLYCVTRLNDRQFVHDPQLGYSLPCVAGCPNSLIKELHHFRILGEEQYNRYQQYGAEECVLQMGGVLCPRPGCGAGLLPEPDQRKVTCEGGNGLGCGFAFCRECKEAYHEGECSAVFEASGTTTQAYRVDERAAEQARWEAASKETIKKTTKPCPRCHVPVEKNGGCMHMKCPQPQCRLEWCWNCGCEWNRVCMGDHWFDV
UniProt P14618: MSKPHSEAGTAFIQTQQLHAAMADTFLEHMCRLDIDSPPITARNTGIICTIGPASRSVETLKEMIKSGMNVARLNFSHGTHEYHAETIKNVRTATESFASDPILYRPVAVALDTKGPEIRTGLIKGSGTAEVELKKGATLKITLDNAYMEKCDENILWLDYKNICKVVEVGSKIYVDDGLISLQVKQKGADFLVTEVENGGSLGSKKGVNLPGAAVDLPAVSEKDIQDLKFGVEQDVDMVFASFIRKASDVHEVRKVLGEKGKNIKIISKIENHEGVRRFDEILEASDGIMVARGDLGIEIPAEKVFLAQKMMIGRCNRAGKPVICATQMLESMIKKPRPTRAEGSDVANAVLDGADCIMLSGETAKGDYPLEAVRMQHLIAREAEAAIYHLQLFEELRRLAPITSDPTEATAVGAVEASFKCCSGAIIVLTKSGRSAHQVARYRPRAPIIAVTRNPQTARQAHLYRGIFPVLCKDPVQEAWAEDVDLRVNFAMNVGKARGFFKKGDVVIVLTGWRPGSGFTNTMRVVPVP

B1: 3‐Hydroxyacyl‐CoA dehydratase 2 (HACD2), endogenous in PANC‐1 cells (protein, UniProt Q6Y1H2 1-254)
chain: MAAVAATAAAKGNGGGGGRAGAGDASGTRKKKGPGPLATAYLVIYNVVMTAGWLVIAVGLVRAYLAKGSYHSLYYSIEKPLKFFQTGALLEILHCAIGIVPSSVVLTSFQVMSRVFLIWAVTHSVKEVQSEDSVLLFVIAWTITEIIRYSFYTFSLLNHLPYLIKWARYTLFIVLYPMGVSGELLTIYAALPFVRQAGLYSISLPNKYNFSFDYYAFLILIMISYIPIFPQLYFHMIHQRRKILSHTEEHKKFE
[1]
  binding: binds
[2]
  binding: binds

B2: HACD2 overexpressed in PANC‐1 cells by transduction (protein, UniProt Q6Y1H2 1-254)
chain: B1 chain
[1]
  binding: binds

B3: His‐HACD2 expressed in PANC‐1 cells (protein, UniProt Q6Y1H2 1-254)
chain: B1 chain
[3]
  binding: binds

B4: His‐HACD2 expressed in HEK‐293T cells (protein, UniProt Q6Y1H2 1-254)
chain: B1 chain
[4]
  binding: no binding

From publication PMC11904967
